Experimental data: PubChem BioAssay AID504832 (National Center for Advancing Translational Sciences (NCATS), 2011)
Out of some 310,000 compounds screened, about 18,000 (5.8%) were called active. Inconclusive results, whose numbers are uncertain, are shown with a selection of clear calls. Calls follow the shape of the dose curve; as a rule, active = well fitted inhibition curve with a large enough effect; inconclusive = small, poorly fitted or top-dose-only effect, or another doubt; inactive = no such curve, though single readings can be large or run the other way. Potencies of inconclusive entries are left out as doubtful fits.

Assay: Primary qHTS for delayed death inhibitors of the malarial parasite plastid, 48 hour incubation
Conditions: P. falciparum luciferase growth in erythrocytes; series mostly up to 28.7 µM
In short: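 Luciferase-expressing parasites in RBCs, 2% Hct / 0.1% parasitemia final; RPMI 1640 + 0.5% Albumax; 37 C, 5% CO2, one generation; luminescence read-out, lower signal = inhibition.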
Potency is read from the fitted curve at half-maximal effect; tags tell the direction and shape of the fitted curve.

SMILES	Potency
CCC(C)c1ccc(NC(=S)NC2CCN(Cc3ccccc3)CC2)cc1 (centres undefined)	inconclusive [inhibitor, single point]
CN(C)c1ccc(/C=N/NC2=NS(=O)(=O)c3ccccc32)cc1	inconclusive [inhibitor, single point]
O=c1c2ccccc2nc(/C=C/c2ccc3c(c2)OCO3)n1-c1ccccc1	inconclusive [inhibitor, partial curve, poor fit]
COC(=O)c1c(NC(=O)CSc2nnc(-c3cccnc3)n2Cc2ccco2)sc(C)c1C	inconclusive [inhibitor, single point]
COc1ccc(/C=C(\C#N)C(=O)NC(C)c2ccccc2)cc1O (centres undefined)	inconclusive [inhibitor, full curve, poor fit]
CCCCCCNC(=O)CCCCCNS(=O)(=O)c1ccc(OC)cc1	inconclusive [inhibitor, partial curve, poor fit]
COc1ccc(Nc2nc(N)c([N+](=O)[O-])c(N3CCN(C)CC3)n2)cc1	inconclusive [inhibitor, single point]
CC(C)OC(=O)Cn1nnc2c(cnn2-c2ccccc2)c1=O	inactive
O=S(=O)(c1ccccc1)c1nc(-c2ccco2)oc1Nc1ccccc1	inconclusive [inhibitor, partial curve, poor fit]
Cc1nc(SCCCSc2n[nH]c(C)n2)n[nH]1	inactive
COc1ccc(-c2csc(NC3CCCCC3)n2)c(OC)c1	active: 9.28 µM
CC(C)C1N(C(N)=S)N=CC1(C)C (centres undefined)	inconclusive [inhibitor, single point]
CCN(CC(=O)Nc1c(F)cccc1F)C(=O)CCNC(=O)c1ccc([N+](=O)[O-])cc1	inactive
O=C(O)c1ccc(O)c2ncccc12	inconclusive [inhibitor, single point]
O=S(=O)(c1ccc2nc(-c3ccccc3)[nH]c2c1)N1CCN(c2cccc(Cl)c2)CC1	inconclusive [inhibitor, single point]
COC1CCN(C(=O)c2ccc3oc(C(C)C)nc3c2)CC1	inactive
Cc1cccc(NC(=O)c2cc(Cl)nc3ccccc23)n1	inconclusive [inhibitor, single point]
CC12COC3(C(=O)NCCc4ccccc4)CC1CCC32C (centres undefined)	inactive
O=C(Cn1c(=O)cnc2ccccc21)N1CCN(S(=O)(=O)c2ccccc2Br)CC1	inconclusive [inhibitor, single point]
CCc1nc2ccc(C(=O)NCCc3ccco3)cc2nc1CC	inactive
C=CCNC(=O)CSc1nc2ccccc2c(=O)n1CCc1ccc(OC)c(OC)c1	inconclusive [inhibitor, single point]
Cc1ccc(C(=O)N2CCc3ccccc3C2)cc1S(=O)(=O)N1CCOCC1	inconclusive [inhibitor, single point]

SMILES	Potency
COc1ccc(-c2cc(C(F)(F)F)n3ncc(C(=O)NCC4CCCO4)c3n2)cc1OC (centres undefined)	inconclusive [inhibitor, full curve]
Cc1ccc(NC(=O)CSc2nnc(CSc3nc(C)cc(C)n3)n2Cc2ccco2)c(C)c1	inconclusive [inhibitor, single point]
CC(C)(C)[C@H]1C=C(C(=O)Nc2ccccc2)O[C@@H](OCc2ccc(CO)cc2)C1	inconclusive [inhibitor, partial curve]
N#Cc1ccc2c(c1)C[C@]1(c3ccsc3)OC3=C(C(=O)OC4(CCCCC4)C3)C2O1	inconclusive [inhibitor, single point]
CCOc1ccc(CNc2nnnn2C)cc1	inactive
C/C(=N\N=C1\NC(=O)C(CC(=O)O)S1)c1ccccn1 (centres undefined)	active: 10.4 µM
CCCCC(c1nnnn1CS(=O)(=O)c1ccc(C)cc1)N1CCN(c2ccccc2)CC1 (centres undefined)	active: 13.1 µM
CCOc1ccc(C(=O)Nc2ccc(S(=O)(=O)N3CCN(C)CC3)cc2)cc1	inconclusive [inhibitor, partial curve, poor fit]
CCC(=O)N1CCc2cc(Br)cc(S(=O)(=O)N3CCC(C(=O)NC(C)C)CC3)c21	active: 6.57 µM
O=C(O)C1=CC[C@@H](c2ccc(Cl)cc2)N(S(=O)(=O)c2ccc(Cl)cc2)[C@H]1c1cccc(Cl)c1	inconclusive [inhibitor, partial curve, poor fit]
COc1ccc([C@H]2CC(=O)C=C(/C=C/c3ccc(C(F)(F)F)cc3)C2)cc1	inconclusive [inhibitor, single point]
CC(C)N(C(=S)Nc1cccc(C(F)(F)F)c1)C(C)c1ccccn1 (centres undefined)	inconclusive [inhibitor, single point]
Cc1cccc(NC(=O)CN(C)CC(=O)NC(c2ccccc2)c2ccccc2)c1C	inconclusive [inhibitor, partial curve, poor fit]
Cc1cc(C)c(N(CC(=O)NC(C)(C)C)C(=O)CNC(=O)c2cccs2)c(C)c1	inconclusive [inhibitor, single point]
CCc1nnc(NS(=O)(=O)c2ccc(NC(=O)c3ccccc3O)cc2)s1	inactive
CC(C)(C)n1nc2c(c1NC(=O)c1ccc(S(=O)(=O)N3CCCC3)cc1)CSC2	inconclusive [inhibitor, single point]
CCOC(=O)C1CCN(C(=O)C2CC(=O)N(c3ccc4c(c3)OCCO4)C2)CC1 (centres undefined)	inactive
COc1ccc(-c2cc3nc(C)c(CCC(=O)N4CCN(c5ccccn5)CC4)c(C)n3n2)c(OC)c1	inconclusive [inhibitor, partial curve, poor fit]
CN1c2ccccc2C(C)(C)C12C=Nc1c(cc(N3CCOCC3)c3ccccc13)O2 (centres undefined)	inconclusive [inhibitor, partial curve, poor fit]
COc1ccc(CN(C)C(c2ccccc2)c2nnnn2-c2ccccc2C)c(OC)c1C (centres undefined)	inconclusive [inhibitor, single point]
O=C(Cn1nnc2ccccc21)c1cccc([N+](=O)[O-])c1	inactive
CS(=O)(=O)c1ccccc1C(=O)NC1CCCc2ccccc21 (centres undefined)	inactive

SMILES	Potency
O=C(CC1SC2=NCCN2C1=O)Nc1ccc(Br)cc1 (centres undefined)	inactive
O=C(Cn1cc(C(F)(F)F)ccc1=O)N1CCN(S(=O)(=O)c2ccc(Cl)cc2)CC1	active: 2.94 µM
O=C(O)c1cc(N=Nc2c(O)ccc3ccccc23)cc(C(=O)O)c1	inconclusive [inhibitor, partial curve, poor fit]
COC(=O)CCCC1=CC2=CC(=O)C(C)(OC(=O)c3cccs3)C(=O)C2=CN1CCc1ccccn1 (centres undefined)	inconclusive [inhibitor, single point]
CCOc1ccc2nc(N3CCCC(C(=O)NCCCN4CC(C)CC(C)C4)C3)sc2c1 (centres undefined)	inconclusive [inhibitor, full curve]
Cc1cccc(NC(=S)N2CCN(S(=O)(=O)c3ccccc3)CC2)c1	inconclusive [inhibitor, single point]
CCc1nc2nc(C)c(NS(=O)(=O)c3ccc4c(c3)CCCC4)c(=O)n2[nH]1	inactive
Cc1cccc(N(C(=O)CCC(=O)Nc2ccccn2)C(C(=O)NC(C)C)c2ccc(F)cc2)c1 (centres undefined)	inconclusive [inhibitor, full curve]
COc1ccc2c(c1)cc1n2CCN=C1N	inconclusive [inhibitor, partial curve, poor fit]
COc1ccccc1CNc1n[nH]c(NCc2ccccc2OC)n1	inconclusive [inhibitor, single point]
Oc1c(Br)cc(Br)cc1CNc1cnc2ccccc2c1	inconclusive [inhibitor, full curve, poor fit]
Cc1cccc(NS(=O)(=O)c2ccc(C)c(C(=O)NCC(c3cccs3)N(C)C)c2)c1 (centres undefined)	inconclusive [inhibitor, single point]
O=C(NCc1ccccn1)c1ccc(Cn2c(=S)[nH]c3ccc(Br)cc3c2=O)cc1	inconclusive [inhibitor, single point]
O=C(O)c1ccc(NC2=C(N3CCOCC3)C(=O)c3ccccc3C2=O)cc1	inactive
COc1ccc2c(c1)c(CC(=O)OC(C)C(=O)N(C)C)c(C)n2C(=O)c1ccc(Cl)cc1 (centres undefined)	inconclusive [inhibitor, single point]
COc1cc2c(cc1OC)C(c1cc3cc(C)ccc3[nH]c1=O)N(C(=O)c1ccco1)CC2 (centres undefined)	inconclusive [inhibitor, partial curve]
COc1ccc(C2/C=C\CN(C(=O)c3ccccc3)[C@H](Cc3ccccc3)C(=O)N2Cc2ccc(F)cc2)cc1 (some centres undefined)	inconclusive [inhibitor, partial curve, poor fit]
COc1ccc(F)cc1S(=O)(=O)n1nnc2ccccc21	inconclusive [inhibitor, single point]
Cn1c(=O)c(=O)n(C)c2cc(S(=O)(=O)N3CCCC3C(=O)Nc3ccc(F)cc3)ccc21 (centres undefined)	inconclusive [inhibitor, full curve, poor fit]
O=C(NCCCN1CCCC1=O)c1cccc(S(=O)(=O)N2CCN(c3ccc(F)cc3)CC2)c1	inconclusive [inhibitor, partial curve]
